In the RNAGym collection of RNA variant scans (doi:10.1073/pnas.2313332121):
Variants at the background level are over-represented here.

B1: TPR 5TU (parent)
chain: GGAUCUUCUCGAUCUAACAAAAAAGACAAAUCUGCCACAAAGCUUGAGAGCAUCUUCGGAUGCAGAGGCGGCAGCCUUCGGUGGCGCGAUAGCGCCAACGUUCUCAACUAUGACACGCAAAACGCGUGCUCCGUUGAAUGGAGUUUAUCAUG

Variants of: B1
Assay: polymerase ribozyme fitness, log enrichment relative to wild type (log ratio); higher = more active; in vitro selection for triplet polymerase activity
How it was run: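 For each subunit of a heterodimeric triplet polymerase ribozyme, a mutant library was built by PCR and transcribed, then taken through a single in vitro selection round in triplicate. Selection involved annealing to a biotinylated primer, the partner subunit and triplets, incubation frozen at −7 °C, gel excision of extended constructs, capture on streptavidin beads and RT-PCR. Genotypes were retained after Illumina sequencing of inputs and outputs only with ≥10 input reads and ≥1 read in each output. Fitness is defined as the logarithm of a genotype's enrichment relative to wild-type enrichment, using inverse-variance-weighted averages across replicates, with the logarithm taken to base 2.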

Variant	polymerase ribozyme fitness (log ratio)
U7A C54U C87G	≤ -4.2
C5U A23C A40C A49U G70C G94A	≤ -4.2
U6G A28G G58U C85U	≤ -4.2
U7G A20U A24U C27G C43U C76G A89G C93U	≤ -4.2
U6G A23G A26G A49C G50U	≤ -4.2
U7C U15C A20G A40U U56A G59A G71A A138U U139A G143A	≤ -4.2
U7C U9G C54U A107C U127A	≤ -4.2
U7G A47U U55A C57A C63U C95U	-3.6
U7A G42A U45A U55A G70A C85G A97C G143U	≤ -4.2
U6G C32U U44A A52U C54A A89C U90A A97U A106C U109G G133A	≤ -4.2
U6G C27G C54A A66U G92A C95U C103A C114G G124U G133U G143C	≤ -4.2
U6G A40U A49U A66C G94U A98U U134C G140A	≤ -4.2
U7A A23U C54U U55A G92U A98U U146G	≤ -4.2
C5U C85G U104C	-3.03
U7C C69G G86A A113U G140A G141C	≤ -4.2
U6G C57A C85A C95U	-0.326
U6C U31C C57A C96G	-1.1
U7C A64C C79G	≤ -4.2
C5G U55A	-0.729
U6A C35U C54U C63G G80A C93U	≤ -4.2
U6G A73U	-0.322
C5U C27G C95U C96U G141C	≤ -4.2
U7G A23G C38U C51G A89C C93A A115U C125U U145C	≤ -4.2
U6G C18U G46C G92A G141A	≤ -4.2

Variant	polymerase ribozyme fitness (log ratio)
C5U A26C C95A C123A G143U C149A	≤ -4.2
U6C C35U G80U G81C C93G	≤ -4.2
U6G A20U A41U U44A U55G G83A G88U A98U A121G U145A	≤ -4.2
U7G A12G C18G C32U G94C A115U	≤ -4.2
U6G C10U A29C G94C A113G C125U	≤ -4.2
U6A U33C G100U	≤ -4.2
U7C A23C C36G U56A	≤ -4.2
U6G C27U A49C C79G A89U C93U C132A	≤ -4.2
U7C G50U G140U	≤ -4.2
U6C C10U A20C A122C	≤ -4.2
C5U U13G A20C C27G G80A C87U U148G	≤ -4.2
U6A U7A A29G C38U C95G C99A	≤ -4.2
C5U G88C C114U G141U	≤ -4.2
U7C A17G A23U A52C C76G C85U C93A G128U G152C	≤ -4.2
U7C G46A G50A C95U A97G A98G U102A C131U	≤ -4.2
U7A C85U	-2.9
C5U C54G	-0.591
C5U A39U C43A U77C C95G C96U U144C	≤ -4.2
U6A A24U G81U C85G G140U	≤ -4.2
C5U A24C G46C G67C C72G A73C C93G U144A	≤ -4.2
U6A C14G A20G C76G C79A G83U G133A G143C	≤ -4.2
U7A A19C G59U C87U A121G A137C A142C	≤ -4.2
U6G A22U U33G C54U C76G G84A G141C	≤ -4.2
U7A U9G C38A G141A U144G	≤ -4.2

Variant	polymerase ribozyme fitness (log ratio)
U7A C93G A113U A138C	≤ -4.2
U7C U9G A21G U33C A49C U56C C95A U104G A142G	≤ -4.2
U6A C69U C85G C108U	≤ -4.2
U7C C57G A98G	-3.3
U7A A47C A60C C79U G83A	≤ -4.2
U6C C14G G58C A60G G88A U102G	≤ -4.2
U6A U55A	-1.4
U6G G86U G152U	-4.12
U7A A24C G50U A52U C87G	≤ -4.2
U7A G11C A26C C87A G100C U151G	≤ -4.2
U6A C38U U44A U82G C85U C95A U101G	≤ -4.2
U6A C27A C85G	≤ -4.2
U6G U44A A91C G94U C149G	≤ -4.2
U7A A22C A24U C54G G83A	≤ -4.2
U7C G50C C96U U134A	≤ -4.2
U7C A17U A29U C57U C93U	≤ -4.2
U7C A21G C76A C87A C103A U151G	≤ -4.2
U7A C10A C51U A52G A73G C87G A138G U148C	≤ -4.2
C5U C38A A52U U82G G86U C116U C118U G140U	≤ -4.2
U7C U56A A91U A106U C132U	-3.92
U6C U45A C69U C75G C96A	≤ -4.2
U6A C85U	-0.519
U7C C8A C32U A91U A121G U134C	≤ -4.2
U6C A73U G84A G100U G124A C125G U145G	≤ -4.2

Variant	polymerase ribozyme fitness (log ratio)
C5U A40C C54G G92A A121U C132U U146A	≤ -4.2
C5U A41U C72U G94A C99G	≤ -4.2
U6A C18G C87A A91G A120U U139A	≤ -4.2
U6C C93G	-3.54
U7A A121U A138G	≤ -4.2
U6G A41U U45C	-2.17
C5G U82A C95U	-0.788
U7A A110G	≤ -4.2
U6C C8U A19G C27A U31C C75G G86C A122G C149U	≤ -4.2
U7C U56A G94A A98G	-3.41
U6A A12U A29U A64C	≤ -4.2
U6G C10G C87G	≤ -4.2
U6A C54A C85A C96U G133U U146G	≤ -4.2
U6C U90C C93G A97U U144C	≤ -4.2
U6C A19C A52U C54A U90G U139C U146A	≤ -4.2
C5U A16U G88U U134G U139G	≤ -4.2
U7A C57G G84U A89U U104G	≤ -4.2
U6G U53A	-0.949
U7C A30U A47C A60G C105U A147U	≤ -4.2
U6G C14G A37U A52C C87G C118U A121C	≤ -4.2
C5U C8G U61C G92C G100U	≤ -4.2
U6A C87A	≤ -4.2
U6A G25C A29C G42C G67C C79U A91U C105U A110G A147U	≤ -4.2
U7C G11C A28U U78G A91U	≤ -4.2

Variant	polymerase ribozyme fitness (log ratio)
C5U U82A C85A C99A U101G G140C	≤ -4.2
U7A G58C G59A C85U G133C	≤ -4.2
U6G G25U G50C G92A	≤ -4.2
U7A C8U C38A C54A U56G C57G A66G U134A	≤ -4.2
U6G C85A C93A G100U	≤ -4.2
U6C A21U U55A G58A G86A	-3.18
U7C A73U C96G G152A	≤ -4.2
U6C C57U C95A C108A U139A	≤ -4.2
U6A U13G C14A A37G G50U U55A G59A C87G G94A C96U C116A	≤ -4.2
U6C G50C A66G C87G	≤ -4.2
C5U U45C A60U G68A C87U C96U	≤ -4.2
U6A A12U	0.206
U6A A22C G50A U61G C79U C85A G143U A147C	≤ -4.2
C5U C14G G34U G86U A98G A115G G133A	≤ -4.2
U6G U15G A16U U33G G70A G92U C108A A142C U151C	≤ -4.2
C5U C32G G92C U104C	≤ -4.2
C5U C51A C54G G59C G84A C116G	-3.05
U7A A64C G74A G80C A91U U139A U148A C149G	≤ -4.2
C5U A24U C32G U53G C123G A147G U151G	≤ -4.2
U7A C35A C87A C93A	≤ -4.2
U6C G58C A73G C93G G124U U139G U148G	≤ -4.2
U7C A29U A37U U44A G117U A121G U135C A138C	≤ -4.2
U7A A12U A52C C93A C108A U135G G140A	≤ -4.2
C5G U13C C18U G46U C108U A122G	≤ -4.2

Variant	polymerase ribozyme fitness (log ratio)
U6G C99U U111A A115U	≤ -4.2
U6A A29G G74A C103G A107G A122U	≤ -4.2
U6A A66G U82A A89G A119U A120U C129G U145G	≤ -4.2
U7A A73G C87G C131A	≤ -4.2
C5U U56A C75U G83C	-0.766
U6G A30C C43G A52C C54U U77A C85G A119G U148G	≤ -4.2
U6G A12U A28C A40C G94C	≤ -4.2
U6G A37G G48U G86A	≤ -4.2
U7A C14G C32U A106G U148C	≤ -4.2
U6A A16U A107C C131G	≤ -4.2
U6G C10G A21G G71A C76U C85A	≤ -4.2
U6A C10G A22C U44A G83A G92U U101C G124A G143C	≤ -4.2
U6G U7G C18G U31G C75U A89G G92A U109C G128C	≤ -4.2
U6G A30U A73U G74C G86U C87A C118U	≤ -4.2
U7A C8U A73G G81A G83A C96A A119U G124C	≤ -4.2
U6G A52C	-0.94
U6C A47C U134G U135C	≤ -4.2
C5U U13C C85U U101G C105A U109G A110G	≤ -4.2
U7A A20G C35A G59U C85G	≤ -4.2
U7A C8G A12C A40C U55G C95U G112C G141C	≤ -4.2
U7C A41U C51U C85A A115U A142U	≤ -4.2
U7A U13G C54A C103G A119G A138C	≤ -4.2
U7G A40U A66C G81C A120G U146G	≤ -4.2
U6A C79A G86U A89C C103G	≤ -4.2

Variant	polymerase ribozyme fitness (log ratio)
C5U G65C G68U A97G A98U	≤ -4.2
U6A G11A A64C C72U C87U A120G C149A	≤ -4.2
U7C A41C C85U C99G C132G U139A	≤ -4.2
U7G A19C A107C A121G U134A	≤ -4.2
C5U C51A G58A G81C	-1.81
U6A C54U G58C C85A U134C	-1.4
U7A A16U A20G A49C C57A G94A A107U A122G	≤ -4.2
U6A A19U G50A U78G G92A U109G	≤ -4.2
U7A A26G C103A	≤ -4.2
C5U A22G A23G U53A A91C C95U	≤ -4.2
U7C G25C A37C G86A G88A C125G	≤ -4.2
U6G A19G C54A C79U C93A A113U U127G	≤ -4.2
U7C A23G U82G G83A U146G A150G G152C	≤ -4.2
U6A A26C A122C	-2.04
C5G U82A C87A C93U G133C C149A	≤ -4.2
C5U A30U C57U G94C C99U G100U G126U C132U	≤ -4.2
U7A A26U C27U A41U U55G C93U	≤ -4.2
U7A C8G A12U A21G A52C U78A G141A	≤ -4.2
U7A U45A G62C A64U G86U	≤ -4.2
U6G U7C A20U A39G A40C G42C G59A G92U C93G A115U C116U	≤ -4.2
U6C A52U C76G A120U U127A	≤ -4.2
U7C C32A U56A G58U C93U G112A A115U	≤ -4.2
U6C G11C A16C G58C A142C	-3.7
